According to the supplement of paper PMC10126150:
Sequences with one replicate were seen in a single cluster, so their values are uncertain.

System: ATP
Assay: switch fluorescence ratio, 500 uM ATP over buffer (Cy3 cluster intensity, sum of 5 cycles each) (fold (ratio)); higher = stronger signal-on switching upon ATP binding; sequences stand for … in TCGTCGGCAGCGTCAGATGTGTATAAGAGACAGTTTTTTTTTTTTTTTTTTTTTTTTT…TC
Settings: aptamer strand: ATP DNA aptamer (quencher-CACCTGGGGGAGTATTGCGGAGGAAGG + anchor), 100 nM annealed; ATP concentration: 500 uM; one replicate
Outline: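 The fluorescence ratio divides summed target-cycle Cy3 intensity by summed buffer-cycle Cy3 intensity for each cluster and is averaged per switch-domain sequence. Cy3-labelled switching-strand clusters on a modified Illumina MiSeq flow-cell were annealed to 100 nM quencher-labelled ATP aptamer, then imaged in selection buffer and again after 15 min with 500 uM ATP at 22 °C. Five such cycles were run, with NaOH stripping and re-annealing between them, and clusters outside 100-1000 RFU were excluded.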
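Note: ATP exposure 15 min at 22 °C before imaging.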

Sequence | switch fluorescence ratio
TTCCGCGACG | 1.24
GGCTAGAGGC | 1.01
TGGGATCTGT | 0.964
GTCCCAGTGT | 2.32
ACTTTCAGAC | 1.02
CATGCGCATC | 2.52
TTCTGGCACC | 0.969
GGCGGTGTTA | 0.955
CATAAAATAA | 0.932
CGGCTGTTGA | 0.968
ATCGGTAGG | 1.02
TCCGATGGTC | 1.44
GGGGTTGAT | 0.987
TACGGCTGAT | 0.985
TTCATCACCT | 1.17
CTTGAGAACG | 1.03
GTTACATGGA | 1
AAATAAGTCG | 0.986
ACCAAGTGAA | 1
GAAGGCGCTA | 0.99
GAGGCCACGT | 0.986
TGACTATATA | 1.03
TACGTTCAGT | 0.972
AAGGGCCAAG | 0.994
AATATTTAAG | 0.985
TGAATTAGCG | 0.972

Sequence | switch fluorescence ratio
AAAAGTCAAA | 1.01
TAGCTTGCTT | 0.966
CCTAGCGCT | 1.24
AAGGTGAGTA | 0.97
CTCAACTAAC | 1.2
GTGGACTTTT | 1.02
TGTACCATCG | 1.04
TGGCTTCGCT | 0.983
CGTCGGATG | 1.03
TCTGACGTGG | 1.07
AATGTCAAC | 1.03
GTTTCTTCCA | 1.02
TACTGCCTGT | 0.989
AATACCGTTA | 1.03
CAACTTCCTC | 2.88
AGTGAGTGGC | 1.07
TTCAACTAGC | 1.05
GGCATGTTAC | 1.27
TAGCTGAAAT | 0.975
AGCCTACTGG | 1.01
GCTTTTTCCC | 0.999
CGGTGGCTGT | 1.01
TATTTAATGG | 1
TCTAGGCAGG | 1.04
GGCATCGAAA | 1
CTGCTAGGA | 1.01

Sequence | switch fluorescence ratio
TTAATTTGCC | 0.916
GTCGCAGGTA | 0.991
TTGGGAATGC | 1.2
TGATCTAAAG | 1.03
CGCGCGGATG | 0.999
ACGATCTTAC | 1.36
GGACTTCGGG | 0.957
TTGCGGGCGC | 0.999
GGATTGACGT | 1.05
ATTACAATAT | 1.04
TGACTATTTA | 1
TTGCCGGTTG | 0.975
CTTTGATGAG | 0.975
TCTAGTCTCG | 1.05
AAGTCGGAAG | 1
TCGTTGTTAC | 1.07
CTCGAAAAAG | 0.968
CACGTATTAA | 1.13
AAGCTTTAAA | 1.03
AGGTCTAATT | 0.985
GCAGTGTGAC | 1.05
ATGTCGGTAC | 1.06
GATTCTAAGA | 1.02
CAGTATGGAC | 1.02
TTAAAGCACA | 1.11
GGGAAAAACG | 1.02

Sequence | switch fluorescence ratio
AAGAGTTGTG | 0.952
GAGCTCTGAG | 1.05
CTTAATCTG | 1.02
TATTAGCGGT | 1.03
CAGACTTCCG | 1.05
GACAGAGGGG | 0.998
AAGCCTGTAC | 1.66
TGCTCTTGGT | 1.03
ACGAGGAA | 1.04
GAGGCCACTA | 1.03
TACTGGACAT | 1.18
TAGGAGCTTT | 1.02
CCGCGTACTA | 5.78
ATAGGGGAGC | 0.97
TGGGAAATGC | 1.08
ATAGTTCATT | 1.04
TCGTCGAAGG | 1.03
TTCGGCAGG | 1.23
GTCCAGCTGC | 1.08
TGCGACCTCC | 1.94
TCACACCCA | 1.28
ATAACTAGTG | 1
GCCGAGCATG | 1.24
ACAAAGTTTC | 0.997
AGCCCCGATG | 1.09
AATAGTCGTA | 0.985

Sequence | switch fluorescence ratio
CGAGGTTTG | 1.02
TCGAATCTGG | 0.986
AGAGCTAAGG | 0.985
ACCCGCGGG | 0.996
ATAAGCTCGA | 1.01
AGGGTTTTG | 0.983
GGCACCCGGG | 0.977
TTCATTGCCC | 1.01
GAGGTCAACC | 1.13
TCAGGTTCGC | 1.05
TTTTAGCGC | 0.977
GTCAGTGGCG | 1.04
GCATATAGTG | 1.01
GCAATATGAG | 5.01
TGGTGTGATC | 1.06
TTTTGGGCTA | 0.986
GTGCTTGGGT | 0.988
ACACTGAACC | 1.33
GGGGGCTCT | 1.05
TATATACAGA | 1
ATCAGCTGGA | 1.05
TTGATGAAAC | 1.21
GTGTCAACAT | 0.995
TCCTGTGGCG | 0.946
CTGACGGTGG | 0.946
TTAAACCAGG | 3.27

Sequence | switch fluorescence ratio
ACACTTCTAA | 1.03
CGGCCCATGC | 1.16
AGAGGCGTTC | 1.02
ACACCGTAAA | 1.01
TTATCAAGTG | 0.99
TGGCCTCGTA | 1.02
GATGATCCGG | 1.01
CTGTTTCCAA | 0.984
AGCCTTTCCG | 1.35
AAATCCCTTG | 1.2
GTGGGCTTTA | 1.03
CTGAGGGTCA | 0.985
TGAAGTAGG | 1.01
AAATCAGGAT | 1.05
GCGACATTAG | 0.979
AGGTTGGTGT | 0.987
TACGTGGTG | 1.02
CTATGTTTCT | 0.979
AACATTTACG | 1.15
GCATCAACTA | 1.01
GAATTAAAAG | 1.08
CGGCACAGGG | 1.15
CCGGGTTCAA | 1.22
GAAACTTGCT | 1.05
GGACCGTGGT | 0.98
ATTATACTTA | 1.02

Sequence | switch fluorescence ratio
CCTTTGGCAT | 1.04
ACATCATGAT | 1.05
TTTAATTACG | 1.11
GGGACAACGG | 1.07
CGTACGCGAA | 1.26
TAAGCCAAGT | 1.05
TATTTAGCCT | 1.05
TGCGTAGTAA | 1.09
CGCTCAAATC | 1.22
GGTATTAGG | 0.977
TAGCGGCCGG | 0.939
AGATCATGTC | 0.975
CAGCATGCTT | 1.01
TCGATATCTG | 0.998
AATGCACAAG | 0.983
AAAGGTATGT | 1.04
TCGATGAACT | 1.01
GAGGGATCGG | 0.983
TCCAAGGATC | 1.03
GAATTATAGC | 1.15
AGCCGATTCC | 1.12
CGCATTTAAT | 1.07
CAGGTCAAGC | 1.02
CCGGAAGTTT | 0.986
TGGATCTTA | 1
ATGATTTGG | 0.99

Sequence | switch fluorescence ratio
GCACTGACGG | 1.69
CCTCAATAGT | 3.16
GATTGGGAAT | 1.01
TTATAACCCA | 1.02
TCATCCAATA | 1.04
GCTGGGGGG | 1.03
GGTCTCGCTC | 0.972
GATATAGGGC | 1.09
GTCCCCGTGC | 1.39
GCCCACAAAG | 0.973
GCGTGATTAA | 1.04
CCAGTTTAG | 0.962
TTTTGGAACC | 0.958
CACCCGCCGT | 1.06
CGTCCGACTG | 1.59
AACGGTGGCA | 0.964
GTGTGATCCA | 0.968
TCACTGTAA | 1.2
CGAATAACAG | 1.02
